# Out of some 350,000 compounds screened, about 31,000 (8.9%) were called active. Inconclusive results, whose numbers are uncertain, are shown with a selection of clear calls. Calls follow the shape of the dose curve; as a rule, active = well fitted inhibition curve with a large enough effect; inconclusive = small, poorly fitted or top-dose-only effect; inactive = no such curve, though single readings can be large or run the other way. Potencies of inconclusive entries are doubtful fits and often do not repeat.
# Target: Histone-lysine N-methyltransferase EHMT2 (Homo sapiens) (UniProt Q96KQ7)
# Assay: qHTS Assay for Inhibitors of Histone Lysine Methyltransferase G9a; also: nearly all actives have a fitted effect of over 75% in size
# Conditions: G9a H3K9 monomethylation, AlphaScreen, 2 h; activity, negative = inhibition: at 59 µM (top of the series) unless noted
# Outline: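 Chemiluminescent proximity detection of H3K9 monomethylation, read after 10 min bead incubation in the dark. Reaction: 20 nM G9a, 500 nM biotin-H3K9 peptide, 20 uM SAM cofactor, 2 h, room temperature, following 15 min enzyme-compound preincubation.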
# % is scaled to controls: 0 for no effect and ±100 for the full control effect; potency is read from the fitted curve at half-maximal effect; tags tell the direction and shape of the fitted curve.
# Chain of UniProt Q96KQ7 (Q96KQ7 whole entry, looked up): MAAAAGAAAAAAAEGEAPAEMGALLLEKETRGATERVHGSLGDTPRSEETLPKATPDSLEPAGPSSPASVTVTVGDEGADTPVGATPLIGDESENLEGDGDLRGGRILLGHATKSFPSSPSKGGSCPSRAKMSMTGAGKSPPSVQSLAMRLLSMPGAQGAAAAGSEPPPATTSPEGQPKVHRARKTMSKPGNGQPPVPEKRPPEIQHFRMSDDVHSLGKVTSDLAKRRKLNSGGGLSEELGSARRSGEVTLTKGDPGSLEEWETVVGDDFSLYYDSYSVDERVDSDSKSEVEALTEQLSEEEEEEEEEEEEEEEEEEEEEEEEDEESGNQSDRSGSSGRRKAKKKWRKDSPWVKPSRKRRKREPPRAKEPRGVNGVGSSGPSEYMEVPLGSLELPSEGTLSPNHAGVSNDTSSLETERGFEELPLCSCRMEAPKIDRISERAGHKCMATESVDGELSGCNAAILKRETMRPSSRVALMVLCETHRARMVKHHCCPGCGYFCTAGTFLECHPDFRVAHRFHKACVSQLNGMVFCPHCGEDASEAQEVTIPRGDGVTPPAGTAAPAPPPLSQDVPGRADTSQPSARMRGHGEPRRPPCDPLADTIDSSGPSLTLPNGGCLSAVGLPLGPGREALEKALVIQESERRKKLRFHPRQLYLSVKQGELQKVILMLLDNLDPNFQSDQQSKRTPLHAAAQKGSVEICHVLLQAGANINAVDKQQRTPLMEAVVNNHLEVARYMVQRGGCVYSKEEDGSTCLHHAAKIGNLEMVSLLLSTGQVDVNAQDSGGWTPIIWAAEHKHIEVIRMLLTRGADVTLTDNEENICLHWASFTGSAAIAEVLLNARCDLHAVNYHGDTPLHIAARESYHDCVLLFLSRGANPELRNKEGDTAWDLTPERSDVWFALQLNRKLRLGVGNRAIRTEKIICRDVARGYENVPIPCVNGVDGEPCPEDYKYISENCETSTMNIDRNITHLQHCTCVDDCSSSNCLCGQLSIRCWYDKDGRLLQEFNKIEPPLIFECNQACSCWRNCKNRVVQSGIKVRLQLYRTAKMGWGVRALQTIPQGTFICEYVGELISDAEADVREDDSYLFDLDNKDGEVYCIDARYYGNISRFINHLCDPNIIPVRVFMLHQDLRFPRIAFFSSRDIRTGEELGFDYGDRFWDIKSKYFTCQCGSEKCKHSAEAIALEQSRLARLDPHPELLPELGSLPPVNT
Structure (SMILES),Potency,"activity, negative = inhibition"
COc1ccc(NC(=S)N(CCN2CCCCC2)Cc2ccco2)cc1,"inconclusive: 56.2 µM [inhibitor, partial curve, poor fit]",–
CN(c1nnc(N)s1)C1CCCCC1,active: 39.8 µM,–
CC(=O)C1=C(C)NC(SCC(=O)c2ccc(Cl)cc2)=C(C#N)C1c1ccco1 (stereo unspecified),"inconclusive: 39.8 µM [inhibitor, single point]",–
Cc1c(CCO)c(=O)n(-c2ccccc2)n1S(=O)(=O)c1ccc(Cl)cc1,active: 25.1 µM,–
CCCOc1ccc(-c2nc(C#N)c(NCC3CCCO3)o2)cc1 (stereo unspecified),active: 70.8 µM,–
COc1cc(/C=C2\SC(=S)N(NS(=O)(=O)c3ccccc3)C2=O)ccc1O,active: 39.8 µM,–
O=Cc1c2[nH]c3ccccc3c2cc2[nH]c3ccccc3c12,inactive,–
NC(=O)c1oc2ccccc2c1NC(=O)c1ccco1,"inconclusive: 50.1 µM [inhibitor, partial curve]",–
Oc1[nH]c2ccc(Br)cc2c1N=NC(=S)Nc1ccc(F)cc1,–,inactive: -40.6% [at 102 µM]
CNc1cc(Cl)nc(SC)n1,"inconclusive: 56.2 µM [inhibitor, partial curve, poor fit]",–
COc1ccc(OC)c(-c2oc3ccccc3c(=O)c2O)c1,"inconclusive: 28.2 µM [inhibitor, single point]",–
Cc1nn(C)cc1CN(C)C(=O)c1cc2nc(-c3ccco3)cc(C(F)(F)F)n2n1,"inconclusive: 39.8 µM [inhibitor, partial curve, poor fit]",–
CCCNC(=O)c1cccc(Cn2cc(Br)c([N+](=O)[O-])n2)c1,–,inactive: -10.9% [at 102 µM]
COc1ccc(C(C)=O)cc1CSc1nnnn1-c1ccc(O)cc1,"inconclusive: 79.4 µM [inhibitor, partial curve, poor fit]",–
c1ccc(-c2nc3ccccn3c2NCc2ccc3c(c2)OCO3)cc1,"inconclusive: 79.4 µM [inhibitor, single point]",–
Cc1ccccc1OCC(O)Cn1c(SC(C)C)nc2c1c(=O)[nH]c(=O)n2C (stereo unspecified),active: 3.55 µM,–
CCOc1ccc(NC(=O)CCCc2nc(-c3cccc(OC)c3)no2)cc1,–,inactive: -4.16%
Oc1cc(O)c2c(c1)O[C@H](c1ccc(O)c(O)c1)[C@@H](O)C2,active: 28.2 µM,–
Cc1ccc(S(=O)(=O)C(C#N)c2nc3ccccc3nc2N2CCCCC2)cc1 (stereo unspecified),active: 44.7 µM,–
CCOC(=O)CCc1n[nH]c(=O)[nH]c1=O,–,inactive: 7.78% [at 12.7 µM]
OCCN1CCN(CC(O)COCc2ccc3c(c2)OCO3)CC1 (stereo unspecified),"inconclusive: 22.4 µM [inhibitor, single point]",–
O=C(CSCc1ccco1)Nc1cc(C(F)(F)F)ccc1N1CCOCC1,"inconclusive: 39.8 µM [inhibitor, partial curve, poor fit]",–
OCCNCCOc1ccccc1F,–,inactive: -0.738%
O=P(CCCCCCCCCP(=O)(c1ccccc1)c1ccccc1)(c1ccccc1)c1ccccc1,"inconclusive: 0.708 µM [inhibitor, full curve, poor fit]",–

Structure (SMILES),Potency,"activity, negative = inhibition"
O=C(/C=C/c1ccc(-c2ccc(F)cc2)o1)N1CCCC1,active: 44.7 µM,–
COc1ccc(-n2cc(-c3ccccc3)c3c(NCCOCCO)ncnc32)cc1,"inconclusive: 89.1 µM [inhibitor, single point]",–
CC(NC(=O)c1ccc(S(C)(=O)=O)cc1)c1cccc2ccccc12 (stereo unspecified),"inconclusive: 89.1 µM [inhibitor, single point]",–
CCOc1ccc(C(C)=O)cc1COc1cccnc1[N+](=O)[O-],–,inactive: 16.1% [at 102 µM]
CCN(CC)C(=O)C1CCN(Cc2ccc(Br)cc2)CC1,"inconclusive: 8.91 µM [inhibitor, partial curve, poor fit]",–
Cc1c(C)c2ccc(O[C@@H]3O[C@H](CO)[C@H](O)[C@H](O)[C@H]3O)cc2oc1=O,"inconclusive: 0.562 µM [inhibitor, full curve]",–
Cc1ccc(C)c(NC(=O)c2cccc(Oc3ccc([N+](=O)[O-])cc3Cl)c2)c1,"inconclusive: 70.8 µM [inhibitor, single point]",–
CCN(CC(=O)NCc1cccs1)C(=O)c1ccc(OC)c(S(=O)(=O)N2CCOCC2)c1,"inconclusive: 6.31 µM [inhibitor, single point]",–
CCn1c(=O)n(CC)c2cc(N3CCCC3)c(NC(=O)c3cccc(C)c3)cc21,active: 28.2 µM,–
O=C(Nc1ccc2ccccc2c1)c1cccnc1,"inconclusive: 89.1 µM [inhibitor, single point]",–
CCOC(=O)C1CCCN(C(=O)c2ccc(Cl)cc2)C1 (stereo unspecified),active: 79.4 µM,–
Cc1ccc(NC(=O)Cn2c(C)cc(C)c(C#N)c2=O)cc1,–,inactive: 1.45% [at 12.7 µM]
N#Cc1nc(COc2ccc(Cl)cc2)oc1N1CCN(Cc2ccccc2)CC1,active: 15.8 µM,–
CSC1=NCCN1C(=O)c1ccc(S(=O)(=O)N(C)C)cc1,–,inactive: 17.7% [at 102 µM]
COc1cc2c(C#N)c(N3CCN(c4ccccc4OC)CC3)nc(N)c2c(N)n1,"inconclusive: 12.6 µM [inhibitor, partial curve, poor fit]",–
Cn1c(N)c(Sc2ccc(F)cc2)c(=O)n(C)c1=O,"inconclusive: 39.8 µM [inhibitor, partial curve, poor fit]",–
Cc1cccc(-n2c(-c3ccco3)nc3c(cnn3-c3ccccc3C)c2=O)c1,"inconclusive: 22.4 µM [inhibitor, partial curve, poor fit]",–
CCC(NS(=O)(=O)c1ccc(OC)cc1)C(=O)NCCC1=CCCCC1 (stereo unspecified),"inconclusive: 89.1 µM [inhibitor, single point]",–
O=C1CC(N2CCN(c3ccc(F)cc3)CC2)C(=O)N1c1ccc2c(c1)OCO2 (stereo unspecified),–,inactive: -31.5% [at 102 µM]
CSc1cccc(NC(=O)c2c(Cl)cnn2C)c1,–,inactive: -21%
Cc1ccc(OCC(=O)Nc2cc(S(=O)(=O)N3CCOCC3)ccc2N2CCCC2)cc1,"inconclusive: 79.4 µM [inhibitor, single point]",–
CCN(CCCNC(=O)C1CCCN(S(=O)(=O)CC)C1)c1cccc(C)c1 (stereo unspecified),"inconclusive: 50.1 µM [inhibitor, partial curve, poor fit]",–
COC(=O)c1cc2c(cc1NC(=O)c1c(C)nn(-c3ccc(C)cc3)c1-n1cccc1)OCO2,–,inactive: -20.5%
C/C(=C\C(=O)c1ccccc1)Nc1ccc2c(c1)OCO2,"inconclusive: 39.8 µM [inhibitor, single point]",–

Structure (SMILES),Potency,"activity, negative = inhibition"
CCn1nnnc1SCC(=O)NCc1ccc2c(c1)OCO2,"inconclusive: 28.2 µM [inhibitor, single point]",–
Cc1ccccc1-n1nc(CSc2nc3ccccc3[nH]2)c(-c2ccccc2)c1N,"inconclusive: 79.4 µM [inhibitor, partial curve]",–
O=C(Nc1ccc(Cl)cc1)N1CCSC1=NCc1ccccc1,–,inactive: -9.88%
O=C1C(CCCNC(=S)NCc2ccccc2)NC(=S)N1Cc1ccccc1 (stereo unspecified),active: 50.1 µM,–
Cc1nn(Cc2nc(-c3cccs3)no2)c(C)c1Br,"inconclusive: 89.1 µM [inhibitor, single point]",–
COc1ccc(C2C3=C(CC(C)(C)CC3=O)Oc3ncn(CC(C)C)c(=N)c32)cc1 (stereo unspecified),–,inactive: 27.8%
CC(NCC1COc2ccccc2O1)C1COc2ccccc2O1 (stereo unspecified),–,inactive: -26.9% [at 102 µM]
Cc1ccccc1C(=O)NNC(=S)NC(=O)c1cccs1,"inconclusive: 79.4 µM [inhibitor, single point]",–
COc1ccc2c(=O)c3c(=O)n(Cc4ccco4)c(-c4ccc(C)cc4)nc3oc2c1,"inconclusive: 2.82 µM [inhibitor, partial curve, poor fit]",–
COC(=O)C1=C(C)NC(=O)/C1=C\c1cc(C)n(-c2c(C)cccc2C)c1C,active: 10 µM,–
CCCn1c(SCC(=O)c2[nH]c(C)c(C(C)=O)c2C)n[nH]c1=O,"inconclusive: 50.1 µM [inhibitor, partial curve]",–
COc1ccc(-c2ccnc3nc(-n4cccc4)nn23)cc1,"inconclusive: 89.1 µM [inhibitor, single point]",–
Cc1ccc(S(=O)(=O)N(C(=O)c2ccncc2)c2ccc(OC(=O)c3ccncc3)cc2)cc1,"inconclusive: 39.8 µM [inhibitor, single point]",–
Cc1ccc(-n2ncc3c(N(C)Cc4ccccc4)ncnc32)cc1,–,inactive: 33.7%
Cc1cc(Cl)ccc1Oc1ncc(CN2CCN(c3ccccc3)CC2)s1,"inconclusive: 39.8 µM [inhibitor, partial curve]",–
Cc1ccc(S(=O)(=O)c2ccc(Cl)cc2)cc1S(=O)(=O)NC(C(=O)O)C(C)C (stereo unspecified),"inconclusive: 2.24 µM [inhibitor, partial curve, poor fit]",–
COc1ccc(CN2CCNC(=O)C2CC(=O)NCCCC2CCCC2)c(C)c1C (stereo unspecified),"inconclusive: 89.1 µM [inhibitor, single point]",–
CC(C)NC(=O)NC(=O)COC(=O)/C=C/c1ccccc1[N+](=O)[O-],"inconclusive: 50.1 µM [inhibitor, partial curve]",–
CCN(CC)Cc1c(C(=O)N/N=C/c2cccc3ccccc23)nnn1-c1nonc1N,–,inactive: 29.3% [at 102 µM]
CC1=C(C(=O)N2CCOCC2)C(c2ccc(Cl)cc2)NC(=S)N1 (stereo unspecified),active: 70.8 µM,–
COCC(=O)Nc1nc(-c2ccc(-c3ccccc3)cc2)cs1,"inconclusive: 50.1 µM [inhibitor, single point]",–
Cc1ccc(S(=O)(=O)N(CC(=O)NCc2ccco2)C2CCCCC2)cc1,"inconclusive: 31.6 µM [inhibitor, single point]",–
CC(C)(C)NC(=O)COc1coc(CN2CCN(C(=O)c3ccco3)CC2)cc1=O,–,inactive: 1.3% [at 0.501 µM]

# Source: PubChem BioAssay AID504332 (National Center for Advancing Translational Sciences (NCATS), 2011)
